# Assay results published in article PMC4336329 (PLoS ONE, 2015).
# Out of some 310,000 compounds screened, about 14,000 (4.5%) showed an effect of 50% or more. Effects have a minus sign here. This is one part of the list.
# Biological target: human ether-à-go-go-related gene (hERG) potassium channel (human, UniProt Q12809)
# Assay: primary screen, population patch clamp on CHO cells stably expressing hERG
# 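Also: peak tail current of the secondary pulse compared with the same well before compound.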
# human ether-à-go-go-related gene (hERG) potassium channel, sequence (Q12809 whole entry, looked up): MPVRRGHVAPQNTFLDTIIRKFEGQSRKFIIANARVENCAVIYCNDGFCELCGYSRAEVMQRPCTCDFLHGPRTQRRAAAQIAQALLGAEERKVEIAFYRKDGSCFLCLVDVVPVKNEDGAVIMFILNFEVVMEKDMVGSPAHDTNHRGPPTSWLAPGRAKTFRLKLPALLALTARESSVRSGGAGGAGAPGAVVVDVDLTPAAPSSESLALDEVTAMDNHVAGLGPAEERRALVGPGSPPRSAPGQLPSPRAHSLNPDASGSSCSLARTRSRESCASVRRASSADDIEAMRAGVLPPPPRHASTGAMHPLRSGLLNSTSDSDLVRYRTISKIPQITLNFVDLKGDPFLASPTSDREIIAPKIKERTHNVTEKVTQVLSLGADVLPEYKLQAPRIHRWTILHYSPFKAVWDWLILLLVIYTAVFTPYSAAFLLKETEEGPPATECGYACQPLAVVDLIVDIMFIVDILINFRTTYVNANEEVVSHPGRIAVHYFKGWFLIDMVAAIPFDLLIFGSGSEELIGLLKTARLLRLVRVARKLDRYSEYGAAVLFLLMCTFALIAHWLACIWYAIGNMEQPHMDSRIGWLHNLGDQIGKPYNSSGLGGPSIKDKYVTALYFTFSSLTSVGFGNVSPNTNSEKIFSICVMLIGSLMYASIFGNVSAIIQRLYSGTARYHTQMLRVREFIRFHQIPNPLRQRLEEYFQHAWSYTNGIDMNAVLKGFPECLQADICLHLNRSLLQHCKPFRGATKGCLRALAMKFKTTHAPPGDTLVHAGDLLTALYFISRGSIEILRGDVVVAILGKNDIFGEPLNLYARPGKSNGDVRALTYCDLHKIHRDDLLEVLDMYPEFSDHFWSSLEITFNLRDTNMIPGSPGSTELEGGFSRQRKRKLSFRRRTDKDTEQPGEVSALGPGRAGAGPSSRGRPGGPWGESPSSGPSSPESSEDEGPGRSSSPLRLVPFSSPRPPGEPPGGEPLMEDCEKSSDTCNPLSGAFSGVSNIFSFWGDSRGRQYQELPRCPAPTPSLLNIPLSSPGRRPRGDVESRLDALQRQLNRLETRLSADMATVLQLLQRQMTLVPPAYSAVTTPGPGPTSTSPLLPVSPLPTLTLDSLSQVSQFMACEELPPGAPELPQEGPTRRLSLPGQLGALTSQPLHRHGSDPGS
row,SMILES,"hERG current change (%, negative = inhibition) at 10uM"
1,CSc1ncccc1C(=O)OCC(=O)N(CC(C)C)c1c(N)n(Cc2ccccc2)c(=O)[nH]c1=O,6.44%
2,CSc1ccc(/C=C(\C#N)C(=O)Nc2cccc(C)c2)cc1,4.76%
3,COc1ccc(Cn2c(O)c(C=Nc3c(C)n(C)n(-c4ccccc4)c3=O)c(=O)[nH]c2=O)cc1,6.86%
4,CCCN(CC(=O)Nc1ccc(Cl)cc1Cl)C(=O)/C=C/c1cc(OC)ccc1OC,16.8%
5,COc1ccc(C(=O)NCc2ccc(C(=O)O)o2)cc1,4.01%
6,COCc1ccc(CN2CCC(CO)(CC3CCCCO3)CC2)o1 (stereo not drawn),16.3%
7,CC(C)(C)c1nc2cc(Cl)c([N+](=O)[O-])cc2o1,-19.4%
8,Cc1cc([N+](=O)[O-])nn1CC(=O)Nc1ccccn1,5.51%
9,COc1ccc(N(C)S(=O)(=O)c2c(C)[nH]c(=O)[nH]c2=O)c(OC)c1,-4.59%
10,COc1ccc(N2CCN(C(=O)COC(=O)c3cnccn3)CC2)cc1,9.71%
11,CCS(=O)(=O)Nc1ccc(-c2nnc(SCC(=O)c3ccc(NC(C)=O)c(OC)c3)o2)cc1,-23.8%
12,COc1cccc(NC(=O)c2nn(C)c3c2CS(=O)(=O)c2ccccc2-3)c1,8.68%
13,O=C1CCCc2oc3c(cc(NS(=O)(=O)c4ccc5c6c(cccc46)C(=O)N5)c4ccccc43)c21,-10%
14,O=C(c1cccc(F)c1)N1CCc2ccccc21,-12.5%
15,C=CCC(NCc1ccccc1)c1ccc(Cl)cc1 (stereo not drawn),0.909%
16,O=C(CNC(=O)c1ccc(F)cc1)c1ccc(Cl)cc1,17%
17,CCCCN(C(=O)c1c(CC)noc1C)c1c(N)n(CC(C)C)c(=O)[nH]c1=O,0.124%
18,O=C(CSC1CC(=O)N(CCc2ccccc2)C1=O)Nc1ccc(Br)cc1 (stereo not drawn),-12.9%
19,Cc1cccc(CS(=O)(=O)c2ncc(Cl)c(C(=O)NCc3ccccc3)n2)c1,5.6%
20,CC(=O)c1ccc(NC(=S)N2CCN(c3ccccn3)CC2)cc1,9.47%
21,COc1ccc(Cl)cc1N1C(=O)CC(Sc2ccccc2N)C1=O (stereo not drawn),0.15%
22,CC(C)(C)C(=O)Nc1ccccc1C(=O)N1CCCC1,18.7%
23,Cc1ccc(CNC(=O)c2cc(-c3ccccc3C)n(CC3CC(c4cccc([N+](=O)[O-])c4)=NO3)n2)cc1 (stereo not drawn),13.6%
24,COc1cc(OC)cc(OC(=O)C2CCN(S(=O)(=O)c3ccc(OC)c(OC)c3)CC2)c1,3.39%
